The term MIC denotes the smallest concentration in the dilution series that meets the test's criterion for growth inhibition.

The text below walks through data of the supplement of paper PMC11055344.

Compound in assay [1]: CC1(C)S[C@@H]2[C@H](NC(=O)[C@H](N)c3ccc(O)cc3)C(=O)N2[C@H]1C(=O)O [amoxicillin]
Description: Broth microdilution. For orientation: Dilution methods test growth across graded concentrations, often in twofold steps.

Compound in assay [2]: CC1(C)S[C@@H]2[C@H](NC(=O)Cc3ccccc3)C(=O)N2[C@H]1C(=O)O [penicillin G]
Description: Broth microdilution.

MIC of nasopharyngeal S. pneumoniae isolates by broth microdilution (range and time not stated); higher = less susceptible. No active / inactive call per row; the paper counts penicillin above 0.06 and amoxicillin above 0.5 mg/L as non-susceptible (EUCAST). The lowest value, 0.01, is taken as the floor ('<='); the source prints it plain. Penicillin G is assumed for 'penicillin'. Isolates are numbered anew. PBP alleles are the type numbers of penicillin-binding proteins 1a, 2b and 2x; equal numbers mean equal sequences. Some results are limits rather than exact numbers.

In the case of “Streptococcus pneumoniae isolate 124 (PBP alleles 1a 2b 2x: 2_0_6, serotype: 23A)”, the MIC in assay [1] and in assay [2] was 0.03 mg/L throughout.

On to “Streptococcus pneumoniae isolate 125 (PBP alleles 1a 2b 2x: 2_3_2, serotype: 3)”, for which the minimal inhibitory concentration (MIC) in assay [1] and in assay [2] was 0.03 mg/L each time.

“Streptococcus pneumoniae isolate 126 (PBP alleles 1a 2b 2x: 0_0_0, serotype: 15B/C)”: the MIC in assay [1] and in assay [2] was not above 0.01 mg/L in each case.

Regarding “Streptococcus pneumoniae isolate 127 (PBP alleles 1a 2b 2x: 2_6_0, serotype: 11A)”, the MIC in assay [1] and in assay [2] was not above 0.01 mg/L each time.

For the test system “Streptococcus pneumoniae isolate 128 (PBP alleles 1a 2b 2x: 7_67_1, serotype: 23B1)”, the figures for the MIC in assay [1] and in assay [2] were 0.125 mg/L and 0.25 mg/L, respectively.

Take “Streptococcus pneumoniae isolate 129 (PBP alleles 1a 2b 2x: 2_6_0, serotype: 11A)”: the values for the MIC in assay [1] and in assay [2] were not above 0.01 mg/L and 0.03 mg/L, respectively.

With “Streptococcus pneumoniae isolate 130 (PBP alleles 1a 2b 2x: 1_0_0, serotype: 15A)”, the minimal inhibitory concentration (MIC) in assay [1] and in assay [2] was not above 0.01 mg/L throughout.

With “Streptococcus pneumoniae isolate 131 (PBP alleles 1a 2b 2x: 0_0_2, serotype: 10A)”, the MIC in assay [1] is not above 0.01 mg/L; in assay [2] it was 0.03 mg/L.

“Streptococcus pneumoniae isolate 132 (PBP alleles 1a 2b 2x: 2_0_2, serotype: 21)”: the minimal inhibitory concentration (MIC) in assay [1] and in assay [2] was 0.03 mg/L each time.

As to “Streptococcus pneumoniae isolate 133 (PBP alleles 1a 2b 2x: 2_4_0, serotype: 38)”, the MIC in assay [1] and in assay [2] was 0.03 mg/L each time.

“Streptococcus pneumoniae isolate 134 (PBP alleles 1a 2b 2x: 0_0_New, serotype: 35B)”: the MIC in assay [1] and in assay [2] was 0.06 mg/L in each case.

“Streptococcus pneumoniae isolate 135 (PBP alleles 1a 2b 2x: 24_27_28, serotype: 15A)”: the minimal inhibitory concentration (MIC) in assay [1] and in assay [2] was 0.25 mg/L in each case.

In the case of “Streptococcus pneumoniae isolate 136 (PBP alleles 1a 2b 2x: 55_60_43, serotype: Non-typeable/NCC2a)”, the minimal inhibitory concentration (MIC) in assay [1] and in assay [2] was 0.125 mg/L in each case.

“Streptococcus pneumoniae isolate 137 (PBP alleles 1a 2b 2x: 1_0_0, serotype: 15A)”: the MIC in assay [1] and in assay [2] was not above 0.01 mg/L in each case.

On to “Streptococcus pneumoniae isolate 138 (PBP alleles 1a 2b 2x: 2_0_2, serotype: 15B/C)”, for which the MIC in assay [1] and in assay [2] was 0.03 mg/L throughout.

As for “Streptococcus pneumoniae isolate 139 (PBP alleles 1a 2b 2x: 0_0_0, serotype: 15B/C)”, the MIC in assay [1] and in assay [2] was 0.03 mg/L throughout.

For the test system “Streptococcus pneumoniae isolate 140 (PBP alleles 1a 2b 2x: 25_69_56, serotype: Non-typeable/NCC2b)”, the MIC in assay [1] is 1 mg/L; in assay [2], 0.5 mg/L.

In the case of “Streptococcus pneumoniae isolate 141 (PBP alleles 1a 2b 2x: 12_0_0, serotype: 31)”, the MIC in assay [1] and in assay [2] was 0.03 mg/L in each case.

Consider “Streptococcus pneumoniae isolate 142 (PBP alleles 1a 2b 2x: 2_0_3, serotype: 7C)”, for which the MIC in assay [1] and in assay [2] was not above 0.01 mg/L each time.

“Streptococcus pneumoniae isolate 143 (PBP alleles 1a 2b 2x: 0_0_2, serotype: 34)”: the minimum inhibitory concentration (MIC) in assay [1] and in assay [2] was not above 0.01 mg/L in each case.

In the case of “Streptococcus pneumoniae isolate 144 (PBP alleles 1a 2b 2x: 3_6_5, serotype: 8)”, the MIC was not above 0.01 mg/L in assay [1] and 0.03 mg/L in assay [2].

Turning to “Streptococcus pneumoniae isolate 145 (PBP alleles 1a 2b 2x: 0_0_0, serotype: 23B)”, the MIC in assay [1] and in assay [2] was 0.03 mg/L each time.

“Streptococcus pneumoniae isolate 146 (PBP alleles 1a 2b 2x: 78_0_0, serotype: Serogroup 24)”: the MIC in assay [1] and in assay [2] was not above 0.01 mg/L in each case.

Turning to “Streptococcus pneumoniae isolate 147 (PBP alleles 1a 2b 2x: 0_0_0, serotype: 15A)”, the minimal inhibitory concentration (MIC) in assay [1] and in assay [2] was 0.03 mg/L throughout.

Turning to “Streptococcus pneumoniae isolate 148 (PBP alleles 1a 2b 2x: 0_0_2, serotype: 35B)”, the minimum inhibitory concentration (MIC) in assay [1] is not above 0.01 mg/L; in assay [2] it was 0.03 mg/L.

As to “Streptococcus pneumoniae isolate 149 (PBP alleles 1a 2b 2x: 0_6_2, serotype: 16F)”, the minimal inhibitory concentration (MIC) in assay [1] and in assay [2] was 0.03 mg/L throughout.

Consider “Streptococcus pneumoniae isolate 150 (PBP alleles 1a 2b 2x: New_New_7, serotype: Non-typeable/NCC2a)”, for which the minimal inhibitory concentration (MIC) in assay [1] and in assay [2] was 2 mg/L in each case.

With “Streptococcus pneumoniae isolate 151 (PBP alleles 1a 2b 2x: 0_0_0, serotype: 35B)”, the minimum inhibitory concentration (MIC) in assay [1] and in assay [2] was 0.03 mg/L throughout.

Take “Streptococcus pneumoniae isolate 152 (PBP alleles 1a 2b 2x: 2_6_0, serotype: 11A)”: the MIC in assay [1] and in assay [2] was not above 0.01 mg/L in each case.

Turning to “Streptococcus pneumoniae isolate 153 (PBP alleles 1a 2b 2x: 2_6_0, serotype: 11A)”, the minimal inhibitory concentration (MIC) in assay [1] and in assay [2] was not above 0.01 mg/L each time.

Take “Streptococcus pneumoniae isolate 154 (PBP alleles 1a 2b 2x: 1_2_2, serotype: 22F)”: the minimum inhibitory concentration (MIC) in assay [1] and in assay [2] was not above 0.01 mg/L in each case.

Turning to “Streptococcus pneumoniae isolate 155 (PBP alleles 1a 2b 2x: 1_2_2, serotype: 22F)”, the MIC in assay [1] is not above 0.01 mg/L; in assay [2], 0.03 mg/L.

Take “Streptococcus pneumoniae isolate 156 (PBP alleles 1a 2b 2x: 2_0_0, serotype: 6E (06B))”: the MIC in assay [1] and in assay [2] was not above 0.01 mg/L in each case.

Turning to “Streptococcus pneumoniae isolate 157 (PBP alleles 1a 2b 2x: 1_2_2, serotype: 22F)”, the MIC in assay [1] was not above 0.01 mg/L; in assay [2], 0.03 mg/L.

Consider “Streptococcus pneumoniae isolate 158 (PBP alleles 1a 2b 2x: 84_New_New, serotype: 15B/C)”, for which the minimal inhibitory concentration (MIC) in assay [1] and in assay [2] was 0.25 mg/L throughout.

Consider “Streptococcus pneumoniae isolate 159 (PBP alleles 1a 2b 2x: 2_0_2, serotype: 15B/C)”, for which the results for the minimum inhibitory concentration (MIC) in assay [1] and in assay [2] were not above 0.01 mg/L and 0.03 mg/L, respectively.

In the case of “Streptococcus pneumoniae isolate 160 (PBP alleles 1a 2b 2x: 1_0_187, serotype: 19A)”, the MIC in assay [1] was not above 0.01 mg/L; in assay [2], 0.03 mg/L.

For “Streptococcus pneumoniae isolate 161 (PBP alleles 1a 2b 2x: 1_0_0, serotype: 15B/C)”, the MIC in assay [1] and in assay [2] was not above 0.01 mg/L in each case.

For the test system “Streptococcus pneumoniae isolate 162 (PBP alleles 1a 2b 2x: 0_0_3, serotype: 35F)”, the minimum inhibitory concentration (MIC) in assay [1] was not above 0.01 mg/L; in assay [2] it was 0.03 mg/L.

Regarding “Streptococcus pneumoniae isolate 163 (PBP alleles 1a 2b 2x: 0_0_3, serotype: 15A)”, the MIC in assay [1] and in assay [2] was 0.03 mg/L each time.

“Streptococcus pneumoniae isolate 164 (PBP alleles 1a 2b 2x: 2_0_2, serotype: 21)”: the figures for the MIC in assay [1] and in assay [2] were not above 0.01 mg/L and 0.03 mg/L, respectively.

For “Streptococcus pneumoniae isolate 165 (PBP alleles 1a 2b 2x: 7_1_1, serotype: 23B1)”, the minimum inhibitory concentration (MIC) in assay [1] turned out to be 0.06 mg/L; in assay [2], 0.25 mg/L.

Take “Streptococcus pneumoniae isolate 166 (PBP alleles 1a 2b 2x: 0_0_0, serotype: 19A)”: the MIC is not above 0.01 mg/L in assay [1] and 0.03 mg/L in assay [2].

With “Streptococcus pneumoniae isolate 167 (PBP alleles 1a 2b 2x: 2_6_0, serotype: 11A)”, the minimal inhibitory concentration (MIC) in assay [1] and in assay [2] was not above 0.01 mg/L throughout.

Consider “Streptococcus pneumoniae isolate 168 (PBP alleles 1a 2b 2x: 86_82_162, serotype: Non-typeable/NCC2a)”, for which the MIC in assay [1] and in assay [2] was not above 0.01 mg/L each time.

“Streptococcus pneumoniae isolate 169 (PBP alleles 1a 2b 2x: 2_0_2, serotype: 21)”: the MIC in assay [1] and in assay [2] was 0.03 mg/L in each case.

For the test system “Streptococcus pneumoniae isolate 170 (PBP alleles 1a 2b 2x: 0_0_2, serotype: 21)”, the MIC in assay [1] and in assay [2] was not above 0.01 mg/L in each case.

Take “Streptococcus pneumoniae isolate 171 (PBP alleles 1a 2b 2x: 23_27_77, serotype: 12F)”: the MIC in assay [1] and in assay [2] was 0.125 mg/L each time.

Regarding “Streptococcus pneumoniae isolate 172 (PBP alleles 1a 2b 2x: 2_3_2, serotype: 3)”, the MIC in assay [1] and in assay [2] was 0.03 mg/L throughout.

For the test system “Streptococcus pneumoniae isolate 173 (PBP alleles 1a 2b 2x: 0_6_2, serotype: 16F)”, the MIC in assay [1] and in assay [2] was 0.03 mg/L in each case.
